# The whole screen tested about 420,000 compounds, of which about 50,000 (12%) were called active. Inconclusive means that the source gave no clear call. Such entries were picked first, then a sample of the others. The call rests on the fitted dose curve; in most records, active means well fitted inhibition curve with a large enough effect; inconclusive means small, poorly fitted or top-dose-only effect; inactive means flat fitted curve, though single readings scatter. Potencies of inconclusive entries are left out as doubtful fits.
# Assay: qHTS for Inhibitors of human tyrosyl-DNA phosphodiesterase 1 (TDP1): qHTS in cells in presence of CPT; further: nearly all actives have a fitted effect of over 55% in size
# Details: chicken DT40 Tdp1-/-;hTDP1 cells + 20 nM CPT, ATP luminescence, 48 h; activity change, negative = growth inhibition: at 46.2 µM (top of the series)
# Outline: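 Cell growth measured by CellTiter-Glo luminescence after a minimum 48 h, 37 C compound exposure with 20 nM CPT in Tdp1-knockout DT40 cells stably expressing hTDP1, seeded 400/well; qHTS titration format.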
# On the % scale 0 is the no-effect control and ±100 the full control effect; potency means the concentration at half of the fitted maximal effect; tags describe the fitted curve by direction and shape.
SMILES,Potency,"activity change, negative = growth inhibition"
CCCc1nc(SCC(=O)N2CCc3ccccc3C2)c2ccccc2n1,"inconclusive [inhibitor, single point]",–
O=C(NCCn1cc(SCc2ccccc2)c2ccccc21)c1c(F)cccc1F,"inconclusive [inhibitor, single point]",–
CCCCN(C(=O)NC(=O)C1=C(N2CCOCC2)/C(=C/c2ccccc2)CC1)S(C)(=O)=O,–,inactive: -3.62%
CC(C)CC1NC(=S)N(Cc2ccccc2)C1=O (stereo unspecified),"inconclusive [inhibitor, single point]",–
COc1ccc(C)cc1NC(=O)N(C(C)C)C1CCN(C(C)=O)CC1,–,inactive: 18.2%
Cc1ccc(C)c(NC(=O)COC(=O)c2nn(C)c(=O)c3ccccc23)c1,–,inactive: 0.793%
COc1ccc(C)cc1S(=O)(=O)Nc1cc2c3c(c1)CC(=O)N3CCC2,"inconclusive [inhibitor, single point]",–
O=C(CSc1nnc(-c2cnccn2)n1Cc1ccco1)c1ccccc1,–,inactive: -14.1%
COc1cccc(=O)c2c(C)n(CC(=O)c3ccccc3)c(C)c12,"inconclusive [inhibitor, single point]",–
CCN(CC)S(=O)(=O)c1cccc(NC(=O)COC(=O)c2[nH]c(C)c(C(C)=O)c2C)c1,active: 1.84 µM,–
O=C(Cc1coc2ccc3ccccc3c12)Nc1nccs1,active: 14.6 µM,–
COCCN1Cc2cccc(C(=O)NC(C)CCc3ccco3)c2C1=O (stereo unspecified),–,inactive: -0.416%
CN(C)C(=O)COC(=O)/C=C/c1ccccc1[N+](=O)[O-],–,inactive: -16.5%
Cc1ccc(N2CCN(c3nc4ccc(C(=O)c5ccccc5)cc4n4cnnc34)CC2)c(C)c1,"inconclusive [inhibitor, single point]",–
O=C(Nc1ccn(Cc2c(F)c(F)cc(F)c2F)n1)c1ccc(COc2ccccc2Cl)cc1,"inconclusive [inhibitor, single point]",–
COc1ccccc1Nc1nn2c(=O)c3ccc(C(=O)NCCc4ccccc4)cc3nc2s1,active: 2.31 µM,–
CCN=C1SC(C(=O)Nc2ccc(OCC)cc2)CC(=O)N1CC (stereo unspecified),"inconclusive [inhibitor, partial curve]",–
CC(=O)Nc1nc(=O)c2ccccc2s1,"inconclusive [inhibitor, partial curve]",–
Cc1ccc(C(=O)NCC(=O)OCC(=O)NCCc2ccccc2)s1,"inconclusive [inhibitor, single point]",–
COc1ccc(CCNc2oc(COc3ccccc3)nc2C#N)cc1,"inconclusive [inhibitor, partial curve]",–
Cc1cc(C(=O)N2CCCC(N3CCN(c4cccc(C(F)(F)F)c4)CC3)C2)nn1C (stereo unspecified),"inconclusive [inhibitor, single point]",–
O=C(O)c1cc(-c2ccccc2)nn1Cc1ccccc1,–,inactive: 6.65%
CCCc1cc(C(=O)N2CCCC(C(=O)c3ccc(Cl)cc3)C2)n(C)n1 (stereo unspecified),"inconclusive [inhibitor, single point]",–
COc1ccc(C(C)=O)cc1CSc1nc(Nc2ccc(F)c(F)c2)c2ccccc2n1,"inconclusive [inhibitor, single point]",–

SMILES,Potency,"activity change, negative = growth inhibition"
CN(C)S(=O)(=O)c1cccc(C(=O)Nc2cc(S(=O)(=O)N3CCOCC3)ccc2N2CCCC2)c1,"inconclusive [inhibitor, single point]",–
Cc1ccc(-c2cc(C(F)(F)F)n3ncc(C(=O)NCc4ccco4)c3n2)cc1,–,inactive: 9.17%
Cc1ccc(-c2nnc3ccccc3c2C(=O)Nc2ccc(F)cc2)cc1,"inconclusive [inhibitor, single point]",–
O=C(NN=C(c1ccccc1)c1ccccn1)c1ccccc1,active: 1.03 µM,–
Nc1ncc(Br)cc1S(=O)(=O)Nc1cc(C(F)(F)F)cc(C(F)(F)F)c1,"inconclusive [inhibitor, single point]",–
Cc1ccn2c(Nc3ccccc3)c(-c3c[nH]c4ccccc34)nc2c1,active: 16.4 µM,–
CCOc1ccc(Nc2ccnc3cc(Cl)ccc23)cc1,"inconclusive [inhibitor, single point]",–
Cc1c(CN(C)C)c2c(n1Cc1ccccc1)C(=O)c1ccc(Br)cc1-2,"inconclusive [inhibitor, single point]",–
COC(=O)c1ccc(CSc2ccc3nnc(-c4ccccc4)n3n2)o1,"inconclusive [inhibitor, single point]",–
COCCSc1nc(N)c2c3c(sc2n1)CN(C)CC3,–,inactive: -17.6%
CC(=O)N1CCc2cc(S(=O)(=O)CCC(=O)NCc3ccco3)ccc21,"inconclusive [inhibitor, single point]",–
CCOC(=O)c1cnc2ccc(OCC)cc2c1NCc1cccnc1,"inconclusive [inhibitor, partial curve, poor fit]",–
CCOc1ccc(-c2noc(CCC(=O)NC3CCCC3)n2)cc1OC,–,inactive: 3.5%
CC(C)N1CCc2c(sc(NC(=O)CCS(=O)(=O)c3ccccc3)c2C#N)C1,"inconclusive [inhibitor, single point]",–
Oc1ccccc1C1=NC(c2ccccc2)NC(c2ccccc2)C1 (stereo unspecified),"inconclusive [inhibitor, single point]",–
COc1cccc(-c2oc3c(c2C#CC2(N)CCCCC2)C(O)CCC3)c1 (stereo unspecified),active: 18.4 µM,–
CC1(c2ccccc2)NC(=O)N(CC(=O)Nc2ccccc2N2CCCCC2)C1=O (stereo unspecified),"inconclusive [inhibitor, single point]",–
COC(=O)Cc1ccc(NC(=S)Nc2ccccn2)cc1,"inconclusive [inhibitor, single point]",–
O=C(Cn1cc2c(n1)CCCCC2)NCc1ccccn1,–,inactive: -5.17%
O=C(CSc1nc2[nH]ncc2c(=O)n1-c1ccccc1)c1ccc2c(c1)OCCO2,"inconclusive [inhibitor, single point]",–
COCCNc1nc(SCC(=O)N2CCN(c3ccccc3)CC2)nc2ccccc12,"inconclusive [inhibitor, single point]",–
CCC1=NN2C(=N)/C(=C\c3cccn3-c3ccc(Cl)cc3)C(=O)N=C2S1,–,inactive: 17.8%
CCc1ccc(C(=O)NNC(=O)c2cccc(N3C(=O)CCC3=O)c2)cc1,–,inactive: 9.79%
Cc1ccc(-n2c(N)c(C(=O)N3CCN(C)CC3)sc2=S)cc1,"inconclusive [inhibitor, partial curve]",–

SMILES,Potency,"activity change, negative = growth inhibition"
Cc1onc(-c2ccccc2Cl)c1C(=O)NC1C(=O)N2C1SC(C)(C)C2C(=O)O (stereo unspecified),–,inactive: -2.14%
O=C(COc1nsnc1N1CCOCC1)N/N=C/c1ccccc1O,active: 4.61 µM,–
Cc1ccccc1OCc1occc1C(=O)Nc1cccc(-n2cnnn2)c1,active: 23.1 µM,–
CCOC(=O)C1CCCN(C(=O)C2CCN(S(=O)(=O)c3cccs3)CC2)C1 (stereo unspecified),"inconclusive [inhibitor, partial curve]",–
COc1ccc(N(CC(=O)NCc2ccc3c(c2)OCO3)S(=O)(=O)c2ccccc2[N+](=O)[O-])c(OC)c1,active: 25.9 µM,–
Cc1ccc(-n2c(C)c([N+](=O)[O-])c3ccc(O)c(CN(C)C)c32)cc1,"inconclusive [inhibitor, partial curve]",–
O=C(Nc1nc(-c2cccs2)cs1)c1cccc(S(=O)(=O)N2CCCCCC2)c1,"inconclusive [inhibitor, single point]",–
CCC(c1nnnn1CCOC)N(Cc1ccc(C)cc1)Cc1cc2cc(OC)ccc2[nH]c1=O (stereo unspecified),"inconclusive [inhibitor, single point]",–
COc1ccccc1C1(CCNC(C)c2cccs2)CCOC(C(C)C)C1 (stereo unspecified),"inconclusive [inhibitor, single point]",–
CC(C)(C)C(=O)C1=C(O)C(=O)N(Cc2ccccc2)C1c1ccccc1F (stereo unspecified),–,inactive: -11.7%
CCCCc1c(O)nc(SCC(=O)c2ccccc2)n(-c2ccccc2)c1=O,active: 2.91 µM,–
CCOc1ccc(NC(=O)C2CCCN(S(=O)(=O)c3ccc4c(c3)CC(C)N4C(C)=O)C2)cc1 (stereo unspecified),"inconclusive [inhibitor, single point]",–
O=C(CCn1cnc2onc(-c3ccc(F)cc3)c2c1=O)Nc1cccc(C(F)(F)F)c1,active: 16.4 µM,–
Cc1cc(C)c(C)c(S(=O)(=O)Nc2ccccc2C(=O)NCCCn2ccnc2)c1C,active: 4.61 µM,–
CCCCN1CCC(CCC(=O)c2cc(Cl)c(N)cc2OC)CC1,"inconclusive [inhibitor, single point]",–
COc1ccc2c(OC)cc(=O)n(C)c2c1,–,inactive: 2.66%
Cc1ccc(-c2nnc(Nc3ccc(OCC(N)=O)cc3)c3ccccc23)cc1S(=O)(=O)NCC1CCCO1 (stereo unspecified),"inconclusive [inhibitor, single point]",–
CCOC(=O)C(NC(=O)C1C(C)N1S(=O)(=O)c1ccc(C)cc1)C(=O)OCC (stereo unspecified),–,inactive: 0.935%
O=C(c1cnccn1)N1CCc2c([nH]c3ccccc23)C1c1cccc(Cl)c1 (stereo unspecified),–,inactive: -25.4%
Cc1csc(N2CCCC2c2nc3cc(Cl)c(N4CCCCC4)cc3n2CCCO)n1 (stereo unspecified),"inconclusive [inhibitor, single point]",–
CCN(CC)CCOC(=O)c1ccc(N/C=C(/C#N)c2nc(-c3cc4ccccc4oc3=O)cs2)cc1,active: 1.16 µM,–
COc1cc2nc(N(CCCN(C)C)C(=O)c3ccc(S(=O)(=O)N(C)C4CCCCC4)cc3)sc2cc1OC,"inconclusive [inhibitor, single point]",–
CNS(=O)(=O)c1ccc(NCC2COc3ccccc3O2)c([N+](=O)[O-])c1 (stereo unspecified),"inconclusive [inhibitor, single point]",–
